Test results: article PMC4552014, “High Affinity Binders to EphA2 Isolated from Abdurin Scaffold Libraries; Characterization, Binding and Tumor Targeting” (PLoS ONE, 2015)
Results are given in words; binding and its absence hold for the method and conditions named. Some results given as binding are weak or reduced against the parent protein; the word gives no strength. For some of these results: Sequences can lack the tags named with a protein.

The chains behind the UniProt entries cited, without tags or fusion partners. Where a name states a change or a piece, a line headed by the entry shows the natural chain unless it says otherwise. Residues count along the entry.
UniProt P29317: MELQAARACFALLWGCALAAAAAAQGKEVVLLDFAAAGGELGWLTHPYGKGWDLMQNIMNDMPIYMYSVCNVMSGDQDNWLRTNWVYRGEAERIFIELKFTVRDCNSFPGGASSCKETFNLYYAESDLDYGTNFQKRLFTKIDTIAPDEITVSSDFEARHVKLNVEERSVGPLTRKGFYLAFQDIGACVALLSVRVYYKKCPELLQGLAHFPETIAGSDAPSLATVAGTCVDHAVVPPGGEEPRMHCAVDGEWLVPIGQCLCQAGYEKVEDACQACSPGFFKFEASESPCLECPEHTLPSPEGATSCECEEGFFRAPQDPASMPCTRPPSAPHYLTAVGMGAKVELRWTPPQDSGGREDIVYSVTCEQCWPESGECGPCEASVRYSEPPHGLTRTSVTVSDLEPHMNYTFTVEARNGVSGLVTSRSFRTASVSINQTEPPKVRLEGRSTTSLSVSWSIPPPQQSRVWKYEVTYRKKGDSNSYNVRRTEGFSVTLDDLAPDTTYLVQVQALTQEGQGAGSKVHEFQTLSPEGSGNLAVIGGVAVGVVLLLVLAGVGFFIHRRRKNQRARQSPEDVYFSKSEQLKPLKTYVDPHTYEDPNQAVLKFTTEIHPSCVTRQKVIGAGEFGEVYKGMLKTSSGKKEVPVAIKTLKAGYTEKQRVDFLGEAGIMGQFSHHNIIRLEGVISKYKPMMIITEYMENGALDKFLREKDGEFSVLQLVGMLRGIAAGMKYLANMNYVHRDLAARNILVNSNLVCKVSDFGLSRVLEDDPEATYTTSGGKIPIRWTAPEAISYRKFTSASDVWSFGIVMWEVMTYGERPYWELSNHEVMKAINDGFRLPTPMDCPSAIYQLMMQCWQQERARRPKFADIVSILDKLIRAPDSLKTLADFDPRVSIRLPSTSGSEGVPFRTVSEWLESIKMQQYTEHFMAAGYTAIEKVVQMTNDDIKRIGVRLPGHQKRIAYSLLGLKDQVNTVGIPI
hEphA2 receptor on HEK293-hEphA2 cells: residues 24-976 of P29317
UniProt Q03145, residues 26-538: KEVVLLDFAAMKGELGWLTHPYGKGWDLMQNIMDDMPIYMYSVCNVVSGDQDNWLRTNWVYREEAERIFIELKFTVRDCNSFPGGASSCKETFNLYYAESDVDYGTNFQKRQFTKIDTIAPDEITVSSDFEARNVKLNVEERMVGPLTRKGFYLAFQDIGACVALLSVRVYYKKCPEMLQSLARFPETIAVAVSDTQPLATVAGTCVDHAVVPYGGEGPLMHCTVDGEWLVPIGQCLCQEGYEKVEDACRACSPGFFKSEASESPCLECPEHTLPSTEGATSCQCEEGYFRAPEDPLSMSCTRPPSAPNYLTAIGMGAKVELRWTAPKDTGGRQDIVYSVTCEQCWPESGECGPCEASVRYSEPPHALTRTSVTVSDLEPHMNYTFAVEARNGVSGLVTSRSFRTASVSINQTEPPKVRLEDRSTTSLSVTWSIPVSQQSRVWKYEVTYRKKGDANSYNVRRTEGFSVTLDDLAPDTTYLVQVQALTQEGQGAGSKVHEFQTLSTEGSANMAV
UniProt P02769, residues 25-607: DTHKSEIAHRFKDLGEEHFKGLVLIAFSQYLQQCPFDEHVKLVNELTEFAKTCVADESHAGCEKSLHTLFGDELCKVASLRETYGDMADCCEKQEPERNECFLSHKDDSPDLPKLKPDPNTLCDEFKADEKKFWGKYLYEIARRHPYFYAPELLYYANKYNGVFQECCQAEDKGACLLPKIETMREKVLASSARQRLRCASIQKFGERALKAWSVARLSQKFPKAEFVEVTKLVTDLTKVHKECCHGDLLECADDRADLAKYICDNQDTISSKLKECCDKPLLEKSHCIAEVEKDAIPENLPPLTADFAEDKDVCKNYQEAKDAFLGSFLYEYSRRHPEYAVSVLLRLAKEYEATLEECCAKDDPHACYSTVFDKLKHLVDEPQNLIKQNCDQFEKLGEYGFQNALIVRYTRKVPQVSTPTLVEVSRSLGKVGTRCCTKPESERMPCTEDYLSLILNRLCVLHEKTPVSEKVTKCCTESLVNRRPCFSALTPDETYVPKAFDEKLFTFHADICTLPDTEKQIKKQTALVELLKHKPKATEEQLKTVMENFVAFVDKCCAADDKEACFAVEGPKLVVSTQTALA

T1: death receptor-6-Fc fusion (UniProt O75509)
T1 sequence: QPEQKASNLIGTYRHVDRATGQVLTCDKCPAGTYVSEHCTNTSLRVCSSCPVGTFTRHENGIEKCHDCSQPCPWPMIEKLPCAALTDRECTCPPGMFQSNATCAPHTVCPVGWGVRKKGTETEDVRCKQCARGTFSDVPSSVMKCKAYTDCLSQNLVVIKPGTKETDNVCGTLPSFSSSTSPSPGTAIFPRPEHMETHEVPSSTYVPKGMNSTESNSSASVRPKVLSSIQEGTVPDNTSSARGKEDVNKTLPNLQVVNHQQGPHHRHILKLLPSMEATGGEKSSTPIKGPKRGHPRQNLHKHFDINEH

B1: Abdurin loop DE clone D2, displayed on phage (designed binder)
chain: GPSVFLFPPKPKDTLMISRTPEVTCVVVDVSHEDPEVKFNWYVDGVEVHNAKTKPRQLDPLYGYRVVSVLTVLHQDWLNGKEYKCKVSNKALPAPIEKTISKAK
B2: Abdurin loop DE clone H3, displayed on phage (designed binder)
chain: GPSVFLFPPKPKDTLMISRTPEVTCVVVDVSHEDPEVKFNWYVDGVEVHNAKTKPRAYYALGGYRVVSVLTVLHQDWLNGKEYKCKVSNKALPAPIEKTISKAK
B3: Abdurin E10, purified non-matured parental loop DE binder (designed binder)
chain: GPSVFLFPPKPKDTLMISRTPEVTCVVVDVSHEDPEVKFNWYVDGVEVHNAKTKPRQYDPLYGYRVVSVLTVLHQDWLNGKEYKCKVSNKALPAPIEKTISKAK
B4: Abdurin H3, purified non-matured parental loop DE binder (designed binder)
chain: GPSVFLFPPKPKDTLMISRTPEVTCVVVDVSHEDPEVKFNWYVDGVEVHNAKTKPRAYYALGGYRVVSVLTVLHQDWLNGKEYKCKVSNKALPAPIEKTISKAK
B5: Abdurin loop DE clone B8, displayed on phage (designed binder)
chain: GPSVFLFPPKPKDTLMISRTPEVTCVVVDVSHEDPEVKFNWYVDGVEVHNAKTKPRGYYALGGYRVVSVLTVLHQDWLNGKEYKCKVSNKALPAPIEKTISKAK
B6: Abdurin loop DE clone A5, displayed on phage (designed binder)
chain: GPSVFLFPPKPKDTLMISRTPEVTCVVVDVSHEDPEVKFNWYVDGVEVHNAKTKPRERYVSYVYRVVSVLTVLHQDWLNGKEYKCKVSNKALPAPIEKTISKAK
B7: Abdurin loop DE clone B11, displayed on phage (designed binder)
chain: GPSVFLFPPKPKDTLMISRTPEVTCVVVDVSHEDPEVKFNWYVDGVEVHNAKTKPRSYYALGGYRVVSVLTVLHQDWLNGKEYKCKVSNKALPAPIEKTISKAK
B8: Abdurin loop DE clone E10, displayed on phage (designed binder)
chain: GPSVFLFPPKPKDTLMISRTPEVTCVVVDVSHEDPEVKFNWYVDGVEVHNAKTKPRQYDPLYGYRVVSVLTVLHQDWLNGKEYKCKVSNKALPAPIEKTISKAK
B9: Abdurin H6, purified loop DE binder (designed binder)
chain: GPSVFLFPPKPKDTLMISRTPEVTCVVVDVSHEDPEVKFNWYVDGVEVHNAKTKPRRVDPLGGYRVVSVLTVLHQDWLNGKEYKCKVSNKALPAPIEKTISKAK
notes: Abdurin scaffold (human IgG1 CH2 domain), stretch before loop DE; loop DE of clone H6, in place of Glu293-Thr299 (EEQYNST) of the scaffold; Abdurin scaffold (human IgG1 CH2 domain), stretch after loop DE

Tests used:
[1] = biological target: hEphA2 receptor on HEK293-hEphA2 cells (human) (UniProt P29317); assay: ELISA; cell-based phage ELISA on HEK293-hEphA2 cells induced with 100 nM doxycycline for 24 hours, fixed in 2% PFA; 100 ul phage supernatant for 2 hours; anti-M13-HRP
[2] = biological target: hEphA2 receptor on HEK293-hEphA2 cells (human) (UniProt P29317); assay: condition: only cells without doxycycline induction; ELISA; cell-based phage ELISA on HEK293-hEphA2 cells in the absence of doxycycline, fixed in 2% PFA; phage supernatants; anti-M13-HRP
[3] = biological target: T2, murine EphA2-Fc fusion protein (mouse, UniProt Q03145 26-538); assay: ELISA; phage ELISA: proteins coated on Nunc Maxisorp plates (range of 10 μg/ml in PBS, overnight 4°C), phage supernatants in 3% MPBST 1 hour at RT, detected with anti-M13-HRP; only the target purified
T2 construct: ephrin receptor tyrosine kinase class A2 (EphA2), mouse, extracellular domain as Fc chimera; Biotinylated in-house (EZ-Link Sulfo-NHS-LC-Biotin) for the CIS display selections and the screening ELISA; also called mEphA2-Fc; mEphA2; source: bought: R&D Systems

[4] = biological target: bovine serum albumin (bovine) (UniProt P02769); assay: as above
[5] = biological target: T1, death receptor-6-Fc fusion; assay: as above
[6] = biological target: T3, hEphA2-Fc (human, UniProt P29317 24-537); assay: ELISA; end-point titration ELISA in 96-well plates coated with hEphA2-Fc or mEphA2-Fc; purified Abdurins titrated; detected by anti-FLAG M2-HRP; the constant is printed as 'Affinity (M)'; both purified
T3 construct: EphA2, human, as Fc fusion coated on 96-well plates; Probably the extracellular domain; also called huEphA2

Binder | binding [1] | binding [2] | binding [3] | binding [4] | binding [5] | binding [6]
B1 | binds | no binding | binds | no binding | no binding | –
B2 | – | – | – | no binding | no binding | –
B3 | – | – | – | – | – | no binding
B4 | – | – | – | – | – | no binding
B5 | binds | no binding | binds | no binding | no binding | –
B6 | binds | no binding | binds | no binding | no binding | –
B7 | binds | no binding | binds | no binding | no binding | –
B8 | – | – | – | no binding | no binding | –
B9 | binds | no binding | binds | no binding | no binding | –
